Data as given in PubChem BioAssay AID1345082 (National Center for Advancing Translational Sciences (NCATS), 2018).
Out of some 94,000 compounds screened, about 4,000 (4.3%) were called active. The inconclusive results got no clear call from the source; some entries with a clear call stand among them for comparison. The call rests on the fitted dose curve; in most records, active means well fitted inhibition curve with a large enough effect; inconclusive means small, poorly fitted or top-dose-only effect; inactive means no such curve, though single readings can be large or run the other way. Potencies of inconclusive entries are doubtful fits and often do not repeat.
Potency means the concentration at half of the fitted maximal effect; tags describe the fitted curve by direction and shape.

Test: Cytotoxic Profiling in NIH 3T3 Cell Line of Diverse Libraries Using Quantitative High-Throughput Screening; further: nearly all actives have a fitted effect of over 55% in size
Conditions: NIH 3T3 viability, CellTiter-Glo ATP luminescence, 48-72 h; series mostly up to 96.7 µM
Outline: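 Viability of NIH 3T3 cells after 48 or 72 hr compound treatment at 37 °C was assessed by CellTiter-Glo, with luminescence imaged following a 10 min room-temperature step.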
For `O=C(c1ccccc1F)N1CCCC(c2nn(-c3ccc(Cl)cc3)c(=O)[nH]2)C1` (configuration not stated), the Potency was inconclusive: 50.1 µM [inhibitor, partial curve, poor fit]. In the case of `CCn1ccc2sc(C)c(C(=O)NCc3ccccc3C)c2c1=O`, the Potency is reported as “inactive”. With `COc1ccc(-c2[nH]nc3ncc(C(=O)N4CC(O)C4)nc23)c(C)c1` the Potency was active: 7.94 µM. For `O=C(NC1CCCCCC1)c1cc(-c2ccc(Cl)cc2Cl)c2nncn2n1`, the Potency was inconclusive: 44.7 µM [inhibitor, partial curve, poor fit]. With `COCCN1CCCC[C@]2(C[C@H](C(=O)O)[C@H](c3ccco3)N2C(=O)CC(C)(C)C)C1=O` the Potency was inconclusive: 79.4 µM [inhibitor, partial curve, poor fit]. In the case of `CCc1nc2c(c(-c3ccc(OC)cc3)n1)CCN(Cc1cccc3ccccc13)CC2`, the Potency is reported as inconclusive: 50.1 µM [inhibitor, partial curve, poor fit]. In the case of `Cc1nnc(-c2cc(-c3ccccc3)ccn2)n1CCN1CCOCC1`, the Potency is reported as inconclusive: 100 µM [inhibitor, single point]. In the case of `Cc1sc2ccn(CC(C)C)c(=O)c2c1C(=O)NCc1cc(F)cc(F)c1`, the Potency is reported as “inactive”. In the case of `Cc1nn(-c2ccccc2)c2c1C(C)N(C1CN(C(=O)Nc3ccccc3)C1)C2=O` (configuration not stated), the Potency is reported as inconclusive: 50.1 µM [inhibitor, partial curve, poor fit]. With `COCCNc1ncnc2c1CN(C1CCCNCC1)C(=O)CN2C` (configuration not stated) the Potency was “inactive”. For `COC1CCC(C(=O)N2CCCn3nc(C)c(-c4ccccc4Oc4ccccc4)c32)CC1` (configuration not stated), the Potency was inconclusive: 44.7 µM [inhibitor, partial curve, poor fit]. With `O=C(NCCc1ccc(Cl)cc1)c1cc(-c2cccs2)c2cccn2n1` the Potency was inconclusive: 50.1 µM [inhibitor, partial curve, poor fit]. For `COc1cccc(-c2ccc(NC(=O)C3CCCN(C(=O)CC(F)(F)F)C3)cc2)c1` (configuration not stated), the Potency was inconclusive: 39.8 µM [inhibitor, partial curve]. For `Cc1cnc(CC2CCN(C(=O)C(C)c3ccccc3)CC2)n1Cc1ccc(F)cc1` (configuration not stated), the Potency was inconclusive: 44.7 µM [inhibitor, partial curve, poor fit]. With `Cc1nn(-c2ccccc2)c(Oc2ccc(F)cc2F)c1CCC(=O)NC(C)C` the Potency was inconclusive: 44.7 µM [inhibitor, partial curve, poor fit]. For `CN(C)CC1(O)CCCN(Cc2ccc(Oc3ccc(Cl)cc3)cc2)C1` (configuration not stated), the Potency was active: 22.4 µM. For `CC(C)NC(=O)C1CCC(=O)N1C1CCN(C(=O)C2CCC2)CC1` (configuration not stated), the Potency was “inactive”. In the case of `O=C(NCCn1cccc1-c1nc(-c2ccc3c(c2)OCO3)no1)c1ccccc1Cl`, the Potency is reported as “inactive”. In the case of `COc1ccc(CN2CCC3OCCN(Cc4ccccc4)C(=O)C3C2)cn1` (configuration not stated), the Potency is reported as inconclusive: 89.1 µM [inhibitor, partial curve, poor fit]. For `CC1(C(=O)NCC2CC2)COCc2cnc(Nc3ccccc3)nc21` (configuration not stated), the Potency was “inactive”. For `Cn1ncc2c(C(=O)N3CCOCC3)cc(-c3ccc(C(F)(F)F)cc3)nc21`, the Potency was inconclusive: 50.1 µM [inhibitor, partial curve, poor fit]. With `COc1nccnc1NC1CCN(C(=O)NCCc2ccccc2)CC1` the Potency was “inactive”. With `O=C(c1ccccc1F)N1CCC2(CC1)NCCc1c2[nH]c2ccccc12` the Potency was “inactive”. In the case of `CCN1C(=O)C2(CCN(C(=O)c3ccc(OC(C)C)cc3)CC2)c2ccccc21`, the Potency is reported as “inactive”. In the case of `Cc1nn(-c2ccccc2)c(Oc2cccc(F)c2)c1CCC(=O)NC(C)C`, the Potency is reported as inconclusive: 44.7 µM [inhibitor, partial curve, poor fit]. In the case of `Cc1ccc(C(=O)NC2CCN(c3cc(-c4ccccc4)[nH]n3)CC2)s1`, the Potency is reported as inconclusive: 31.6 µM [inhibitor, partial curve]. In the case of `Cc1cc(NC(=O)c2ccc(CN3CC[C@H](O)C3)cc2)ccc1F`, the Potency is reported as inconclusive: 44.7 µM [inhibitor, partial curve, poor fit]. For `CCN1c2cc(C(=O)NCc3cccc(OC)c3OC)ccc2C(=O)N2CCCCC21` (configuration not stated), the Potency was inconclusive: 70.8 µM [inhibitor, single point]. In the case of `CCc1noc(-c2cn(C3CCN(C(=O)c4ccc(OC)cc4C)CC3)nn2)n1`, the Potency is reported as “inactive”. With `O=C1Cc2c(-c3ccc(F)cc3F)n[nH]c2CN1CCc1ccncc1` the Potency was inconclusive: 50.1 µM [inhibitor, full curve, poor fit]. For `O=c1cc2c(nn1Cc1cccc(Br)c1)CCCCC2`, the Potency was inconclusive: 44.7 µM [inhibitor, partial curve, poor fit]. With `N#Cc1ccc(C(=O)N2CCOC[C@H](Oc3cnccn3)C2)cc1` the Potency was “inactive”. For `COC(=O)c1ccc2nc(CO[C@H]3CN(Cc4ccc5ccccc5n4)C[C@H]3F)[nH]c2c1`, the Potency was inconclusive: 89.1 µM [inhibitor, partial curve]. In the case of `CC(C)N1C(=O)C(CC(=O)O)=C2CCCCC21` (configuration not stated), the Potency is reported as “inactive”. In the case of `COc1ccc(CC(=O)N2CCCN(c3ccnc4ccnn34)CC2)cc1`, the Potency is reported as “inactive”. With `Cc1nn2c(c1-c1cccnc1N1CCOCC1)N(C(=O)C(C)C)CCC2` the Potency was inconclusive: 112 µM [inhibitor, single point]. In the case of `CCN1CCN(C(=O)c2c(OCC3CC3)cc(=O)n3c2CCCCC3)CC1`, the Potency is reported as inconclusive: 44.7 µM [inhibitor, partial curve, poor fit]. In the case of `COCC(=O)N1CCC(Oc2nccnc2N2CCOCC2)C1` (configuration not stated), the Potency is reported as “inactive”. With `COCC(=O)NC1CCC12CCN(Cc1cccc(C)c1)CC2` (configuration not stated) the Potency was “inactive”. For `COC(=O)N1CCC2(CC1)CCN(Cc1cccs1)c1ccccc1O2`, the Potency was inconclusive: 44.7 µM [inhibitor, partial curve, poor fit]. With `O=C(CN1Cc2nc(Nc3ccc(C(F)(F)F)cc3)ccc2OCC1=O)N1CCCC1` the Potency was active: 50.1 µM. With `COCCn1nnnc1C1CC2(CCOCC2)C(=O)N1Cc1ccc(Cl)cc1` (configuration not stated) the Potency was “inactive”. For `COCCn1ccc2c(C3=CCOCC3)nc(-c3ccc4c(c3)CNC4=O)cc21`, the Potency was inconclusive: 12.6 µM [inhibitor, full curve, poor fit]. For `COc1ccc(CNc2ncnc3c2CN(c2ccccc2C)C(=O)CN3C)cc1`, the Potency was “inactive”. In the case of `CN1CCCN(S(=O)(=O)c2cn(C)cn2)c2ccccc21`, the Potency is reported as “inactive”. For `O=C(c1ccccc1F)N1CCCC2(C1)C(=NC1CCCC1)NC(=O)N2c1cc(F)cc(F)c1` (configuration not stated), the Potency was inconclusive: 50.1 µM [inhibitor, partial curve, poor fit]. For `CN(c1ccccc1)c1cc(=O)c2ccnc(Nc3cccnc3)c2o1`, the Potency was active: 10 µM. For `Cc1ccc(NC(=O)c2ccc3c(c2)N(C)C2CCCCN2C3=O)cc1F` (configuration not stated), the Potency was inconclusive: 50.1 µM [inhibitor, partial curve, poor fit]. In the case of `COc1ccc(-c2noc(C(=O)O)c2[C@@H](C)NC(=O)Nc2ccccc2)cc1`, the Potency is reported as “inactive”. With `O=C1NC2(CCN(C(=O)c3ccc(Cl)c(F)c3)CC2)CC1c1ccccc1` (configuration not stated) the Potency was inconclusive: 50.1 µM [inhibitor, partial curve, poor fit]. With `CNC(=O)[C@H]1CN(C(=O)c2ccc(C)cc2)[C@]2(C)C(=O)N(CC3CC3)c3ccccc3[C@H]12` the Potency was “inactive”. For `O=C(Cn1ccn2nc(-c3ccc(F)cc3)c(CO)c2c1=O)Nc1ccc(Br)cc1`, the Potency was inconclusive: 44.7 µM [inhibitor, partial curve, poor fit]. In the case of `COc1ccc(-n2nc3n(c2=O)CCN(C(=O)c2ccc(C(F)(F)F)cc2)C3)cc1`, the Potency is reported as active: 31.6 µM. In the case of `CNC(=O)[C@@H]1CN(C(=O)c2cc3ccccc3[nH]2)C[C@H]1c1nc(C)no1`, the Potency is reported as inconclusive: 79.4 µM [inhibitor, partial curve, poor fit]. For `COc1cc(OC)cc(C(=O)Nc2ccc3c(c2)CN(Cc2ccccc2)C(=O)C(C)O3)c1` (configuration not stated), the Potency was inconclusive: 39.8 µM [inhibitor, partial curve]. With `COc1ncc(-c2ccc3ncn(C4CC4)c(=O)c3n2)cn1` the Potency was inconclusive: 112 µM [inhibitor, single point]. With `O=C(NC[C@H]1O[C@H](Cc2cc(-c3ccccn3)on2)CC[C@@H]1O)c1ccc2c(c1)OCO2` the Potency was “inactive”. In the case of `C#CCOc1ccc(C(=O)N[C@@H]2CN(C3CCN(C)CC3)CCC[C@H]2O)cc1`, the Potency is reported as inconclusive: 112 µM [inhibitor, single point]. In the case of `O=C(CCCc1ccccc1)N1CCC(c2nc(C3CCOCC3)no2)C1` (configuration not stated), the Potency is reported as “inactive”. With `CCNC(=O)OC1CCN(C(=O)c2ccc(C(C)(C)C)cc2)CC(=O)N(C)c2ccccc21` (configuration not stated) the Potency was inconclusive: 44.7 µM [inhibitor, partial curve, poor fit]. For `O=C(NCc1ccccc1F)C1CCc2nnc(CN[S+](=O)([O-])c3ccccc3Cl)n21` (configuration not stated), the Potency was “inactive”. With `Cc1noc2c(-c3ccncc3)cc(-c3cccs3)nc12` the Potency was inconclusive: 28.2 µM [inhibitor, partial curve, poor fit]. In the case of `CC(C)NC(=O)NC1CC2(CCN(C(=O)Cc3ccc(O)cc3)CC2)c2ccccc21` (configuration not stated), the Potency is reported as “inactive”. In the case of `O=C(CN1C(=O)NC(c2ccccc2Cl)C2=C1COC2=O)NCCc1ccc(Cl)cc1` (configuration not stated), the Potency is reported as inconclusive: 44.7 µM [inhibitor, partial curve]. For `CCN(CC)C(=O)CCc1c(C)nn(-c2ccccc2C)c1Oc1cccc(F)c1`, the Potency was inconclusive: 44.7 µM [inhibitor, partial curve, poor fit]. In the case of `CN(C)c1nc(-c2ccccc2)nc2c1CCN(C(=O)C1CC13CCC3)C2` (configuration not stated), the Potency is reported as inconclusive: 50.1 µM [inhibitor, partial curve, poor fit]. For `O=C(N[C@H]1C[C@H]2C(=O)NC[C@@H](CCC(=O)N3CCc4ccccc43)N2C1)c1ccc(F)c(Cl)c1`, the Potency was inconclusive: 100 µM [inhibitor, partial curve, poor fit].
